This passage reports activation results from PubChem BioAssay AID1346428 (National Center for Advancing Translational Sciences (NCATS), 2018).

In all, about 48,000 compounds went through this assay and about 1,200 (2.5%) were called active. About 2% were inconclusive and are not listed.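 How the source made its calls: active means activation of at least 60% and not above a set upper limit (about 1 call in 100 departs from these limits); inconclusive means activation of 40% to 60%, or above that upper limit; inactive means activation under 40%.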 The list shows a part of the results.

This test has as its target Probable G-protein coupled receptor 32 (Homo sapiens) (UniProt O75388). The test can be described thus: qHTS for Agonists of Human Resolvin D1 Receptor DRV1. Further: 0% is about no effect. As to conditions: CHO-K1 GPR32 beta-arrestin PathHunter luminescence, 90 min; at 76.9 µM; hits give high values; zero percent set by DMSO-only wells. The method in brief: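 GPR32 activation in stably transfected CHO-K1 cells, detected as beta-arrestin recruitment by enzyme-fragment complementation. Compound exposure: 90 min, 37 °C.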
Chain of UniProt O75388 (O75388 whole entry, looked up, the tested form may be a part): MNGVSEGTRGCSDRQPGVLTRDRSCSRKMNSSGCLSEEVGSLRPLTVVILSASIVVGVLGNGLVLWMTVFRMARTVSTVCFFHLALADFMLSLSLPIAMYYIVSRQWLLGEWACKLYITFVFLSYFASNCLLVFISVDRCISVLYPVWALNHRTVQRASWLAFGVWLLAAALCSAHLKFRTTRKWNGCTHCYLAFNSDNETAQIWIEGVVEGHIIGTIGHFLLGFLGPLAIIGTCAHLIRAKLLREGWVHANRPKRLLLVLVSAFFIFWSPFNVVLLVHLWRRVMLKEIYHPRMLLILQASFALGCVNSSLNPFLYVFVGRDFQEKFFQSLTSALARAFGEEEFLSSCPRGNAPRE
On the technique in general: Quantitative high-throughput screening tests each substance at several concentrations.
`Cc1cccc(NC(=O)CSc2nc3ccc(NC(=O)COc4ccccc4F)cc3s2)c1`: the activation was inactive: -3.85%.

Consider `Cc1ccc(NC(=O)C2CCCN2S(=O)(=O)c2ccc3c(c2)CCCC(=O)N3)cc1Cl` (configuration not stated), for which the activation is inactive: 5.73%.

Take `COc1ccc(NC(=O)c2c(NC(=O)Cc3ccccc3)sc3c2CCCC3)cc1`: the activation is inactive: 4.3%.

Turning to `O=C(CSc1ccc2nc(-c3ccccc3)cn2n1)Nc1cccc(F)c1`, the activation is inactive: -11.2%.

As for `C=CCNc1nc(NCC=C)nc(N2CCN(C(c3ccc(F)cc3)c3ccc(F)cc3)CC2)n1`, the activation is inactive: -21%.

For the compound `COc1ccc(NC(=O)Cn2c(=O)n(Cc3ccc(C(=O)NCc4ccccc4Cl)cc3)c(=O)c3ccccc32)cc1`, the activation is inactive: -4.2%.

`COc1ccc(Cn2nnc3c(=O)[nH]c(C4CCN(C(=O)c5ccc(C)cc5)CC4)nc32)cc1OC`: the activation was inactive: -9.52%.

Take `CCN(CC)CCCNC(=O)CN1N=C(c2ccccc2)CCC1=O`: the activation was inactive: -1.98%.

On to `Cc1cc(F)ccc1NC(=O)Cn1c(=O)ccc2cc(S(=O)(=O)N3CCC(C)CC3)ccc21`, for which the activation is inactive: -12.2%.

On to `Cc1nn(C)c2c1c(C(F)(F)F)cc(=O)n2C(C)C(=O)NCc1ccccc1Cl` (configuration not stated), for which the activation was inactive: 1.89%.

On to `Cc1nn(CC(=O)N2CCN(c3cccc(C(F)(F)F)c3)CC2)c(=O)c2cccn12`, for which the activation was inactive: 0.302%.

As to `Cc1ccc(NC(=O)Cn2nnc(C(=O)NCc3cccs3)c2N)cc1Cl`, the activation was inactive: -9.74%.

Consider `COC(=O)c1sccc1S(=O)(=O)N(CC(=O)NCc1ccc(F)cc1)c1ccc(Cl)cc1`, for which the activation is inactive: -11.1%.

As for `COc1ccc(CNC(=O)c2ccc(CNS(=O)(=O)c3ccc(F)cc3)cc2)cc1`, the activation was inactive: -4.01%.

Regarding `Cc1oc(-c2cccc(Cl)c2)nc1Cn1c(SCc2ccccc2F)nc2ccncc21`, the activation was inactive: 1.75%.

For `Nc1c(CC(=O)O)cccc1C(=O)c1ccc(Br)cc1`, the activation is inactive: -30.2%.

As for `COc1ccccc1NC(=O)CSC1=Nc2ccccc2C2=NC(CC(=O)NCc3cccs3)C(=O)N12` (configuration not stated), the activation is inactive: -18.5%.

Take `COc1ccc(CCNC(=O)c2ccc3c(c2)N(Cc2ccccc2C)C(=O)c2ccccc2S3)cc1OC`: the activation was inactive: -29.6%.

In the case of `Cc1ccccc1NC(=O)CSc1nnc(-c2cccs2)o1`, the activation was inactive: -7.2%.

As for `Cc1cccc(N2CCN(C3(c4ccccc4)C(=O)c4ccccc4C3=O)CC2C)c1` (configuration not stated), the activation is inactive: 0.312%.

Turning to `Cc1ccc(-c2nc3cc(Cl)ccc3o2)cc1NC(=O)COc1ccc(F)cc1`, the activation is inactive: -3.66%.

Regarding `COc1cccc(C2CC(=O)Nc3c2c(=O)nc2c(C)cccn32)c1OC` (configuration not stated), the activation is inactive: 0.842%.

As for `Cc1ccc(C(c2sc3nc(-c4ccco4)nn3c2O)N2CCN(Cc3ccccc3)CC2)cc1` (configuration not stated), the activation is inactive: -9.99%.

Take `COc1ccccc1CNC(=O)c1cnn2c(C)c(Cc3ccc(F)cc3)c(C)nc12`: the activation was inactive: -19%.

Take `CCOC(=O)c1ccc(NC(=O)CN2C(=O)COc3ccc(Cl)cc32)cc1`: the activation was inactive: 6.32%.

Consider `CC1=C(C(=O)OC2CCCC2)C(c2ccccc2Cl)CC(=O)N1` (configuration not stated), for which the activation is inactive: -21.3%.

With `Cn1nccc1C(=O)NCc1ccc2c(c1)CCN2C(=O)c1ccccc1`, the activation is inactive: -34%.

On to `CC(C)(C)OC(=O)N1CCC(c2c(C(=O)NC3CCCCC3)cnn2-c2cccc(Cl)c2)CC1`, for which the activation is inactive: -23.6%.

For the compound `Cc1c(C(=O)N2CCC(C)CC2)c(S(=O)(=O)N2CCN(c3ccc(Cl)cc3)CC2)c(C)n1C`, the activation is inactive: -30%.

Regarding `CCOc1ccccc1NC(=O)Cn1nnc(C(=O)Nc2ccc(C)c(C)c2)c1N`, the activation was inactive: 14.6%.

`CC1CCCN(CCCNC(=O)CN2C(=O)CSc3ccc(S(=O)(=O)N4CCOCC4)cc32)C1` (configuration not stated): the activation was inactive: -1.11%.

For the compound `COc1ccc(-c2nc3sc(CCNC(=O)C(=O)Nc4c(C)cccc4C)c(C)n3n2)cc1`, the activation was inactive: -4.23%.

Turning to `O=C(Cn1c(=O)oc2cc(S(=O)(=O)NC3CCCC3)ccc21)Nc1ccc(F)c(F)c1`, the activation was active: 91.3%.

For `Cc1ccc(Cl)cc1N1CCN(S(=O)(=O)c2cc3[nH]c(=O)c(=O)[nH]c3cc2C)CC1`, the activation is active: 97%.

As for `COc1ccc(CNC(=O)Cc2csc3nc(-c4ccc(C)cc4)cn23)cc1`, the activation is inactive: -15.6%.

As to `Cc1ccc(Cl)cc1N1CCN(C(=O)C2CCN(Cc3nc(-c4cccc(Cl)c4)oc3C)CC2)CC1`, the activation is inactive: 14.7%.

On to `Cc1ccccc1C(=O)Nc1nnc(S(=O)(=O)N2CCCCCC2)s1`, for which the activation was inactive: -13.9%.

Consider `COC(=O)CC1Oc2ccccc2-n2cc(-c3ccc(Cl)cc3)nc21` (configuration not stated), for which the activation was inactive: -2.31%.

With `Cc1cc(C)cc(N(CC(=O)NCc2ccccc2Cl)S(=O)(=O)c2c(C)noc2C)c1`, the activation is inactive: -0.497%.

Take `CCOC(=O)c1ccc(Nc2cc(-c3ccccc3)nc(C)n2)cc1`: the activation is inactive: 2.6%.

For the compound `COc1ccc(-n2nc(C(=O)NCCc3cccc(C)c3)c3c4ccccc4n(C)c3c2=O)cc1Cl`, the activation is inactive: 1.19%.

Consider `Cc1cccc(-c2nc(SCC(=O)Nc3ccc4c(c3)OCCO4)c(-c3ccccc3)[nH]2)c1`, for which the activation was inactive: -22.6%.

For `CCc1nn2c(=O)cc(COC(=O)C(c3ccccc3)c3ccccc3)nc2s1`, the activation was inactive: 9.21%.

Regarding `CCOC(=O)Cn1c(=O)n(-c2ccccc2OC)c2nc(-c3ccccc3C)nc(C(N)=O)c21`, the activation was inactive: -0.0071%.

Consider `O=C(COc1ccccc1)Nc1ccccc1C(=O)OCc1cc(=O)n2nc(C3CC3)sc2n1`, for which the activation is inactive: -2.54%.

With `CCOCCc1nn2c(=O)cc(COC(=O)C(CC)c3ccccc3)nc2s1` (configuration not stated), the activation was inactive: -10%.

Consider `COc1ccc(NC(=O)CCn2cccn2)cc1OC`, for which the activation was inactive: 2.24%.

In the case of `Cc1nnc(N2CCN(c3ccccc3F)CC2)c2c1nnn2Cc1ccccc1`, the activation is inactive: -1.63%.

`Cc1cccc(C(=O)Nc2ccccc2SCc2cc(=O)c3cccc(C)c3[nH]2)c1`: the activation is inactive: 17%.

Take `CCOc1ccc(NC(=O)CC2C(=O)N(c3cccc(C)c3)C(=O)N2Cc2cccnc2)cc1` (configuration not stated): the activation was inactive: -4.27%.

Regarding `CCOc1ccc(NC(=O)Cn2c(=O)n(CCC(=O)NCCc3ccccc3)c(=O)c3ccccc32)cc1`, the activation is inactive: 2.81%.

For the compound `Cc1ccc(Cn2c(=O)n(Cc3ccccc3Cl)c(=O)c3ccccc32)cc1`, the activation is inactive: -11.3%.
